# Results reported in article PMC4336329 (PLoS ONE, 2015).
# Among all 310,000 compounds or so, about 14,000 (4.5%) showed an effect of 50% or more. Effects have a minus sign here. This is one part of the list.
# Target: human ether-à-go-go-related gene (hERG) potassium channel (human, UniProt Q12809)
# Assay: primary screen, population patch clamp on CHO cells stably expressing hERG
# Description: Briefly, Chinese hamster ovary (CHO) cells stably expressing the hERG channel were dislodged from tissue culture flasks and dispensed into PPC plates. […] During the recording, background leak currents were estimated by a 100 ms step to -80 mV from an initial holding potential of -70 mV and subtracted from the subsequent current measurement. The campaign was conducted in two phases using slight differences in recording protocol. In the first phase, the initial voltage pulse used a 100 ms step to -30 mV from a holding potential of -70 mV, a 2 s conditioning step to +25 mV, and a 2 s test step to -30 mV. During the second phase of the screen, the potential during the conditioning step was raised to +45 mV. In both phases of the campaign, a secondary voltage pulse was applied using the same parameters as the second phase initial pulse. The initial and secondary pulses were applied in the absence of compound, and upon application of 1 μM and 10 μM test concentrations. […]
# 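Also: peak tail current of the secondary pulse compared with the same well before compound.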
# Chain of human ether-à-go-go-related gene (hERG) potassium channel (Q12809 whole entry, looked up): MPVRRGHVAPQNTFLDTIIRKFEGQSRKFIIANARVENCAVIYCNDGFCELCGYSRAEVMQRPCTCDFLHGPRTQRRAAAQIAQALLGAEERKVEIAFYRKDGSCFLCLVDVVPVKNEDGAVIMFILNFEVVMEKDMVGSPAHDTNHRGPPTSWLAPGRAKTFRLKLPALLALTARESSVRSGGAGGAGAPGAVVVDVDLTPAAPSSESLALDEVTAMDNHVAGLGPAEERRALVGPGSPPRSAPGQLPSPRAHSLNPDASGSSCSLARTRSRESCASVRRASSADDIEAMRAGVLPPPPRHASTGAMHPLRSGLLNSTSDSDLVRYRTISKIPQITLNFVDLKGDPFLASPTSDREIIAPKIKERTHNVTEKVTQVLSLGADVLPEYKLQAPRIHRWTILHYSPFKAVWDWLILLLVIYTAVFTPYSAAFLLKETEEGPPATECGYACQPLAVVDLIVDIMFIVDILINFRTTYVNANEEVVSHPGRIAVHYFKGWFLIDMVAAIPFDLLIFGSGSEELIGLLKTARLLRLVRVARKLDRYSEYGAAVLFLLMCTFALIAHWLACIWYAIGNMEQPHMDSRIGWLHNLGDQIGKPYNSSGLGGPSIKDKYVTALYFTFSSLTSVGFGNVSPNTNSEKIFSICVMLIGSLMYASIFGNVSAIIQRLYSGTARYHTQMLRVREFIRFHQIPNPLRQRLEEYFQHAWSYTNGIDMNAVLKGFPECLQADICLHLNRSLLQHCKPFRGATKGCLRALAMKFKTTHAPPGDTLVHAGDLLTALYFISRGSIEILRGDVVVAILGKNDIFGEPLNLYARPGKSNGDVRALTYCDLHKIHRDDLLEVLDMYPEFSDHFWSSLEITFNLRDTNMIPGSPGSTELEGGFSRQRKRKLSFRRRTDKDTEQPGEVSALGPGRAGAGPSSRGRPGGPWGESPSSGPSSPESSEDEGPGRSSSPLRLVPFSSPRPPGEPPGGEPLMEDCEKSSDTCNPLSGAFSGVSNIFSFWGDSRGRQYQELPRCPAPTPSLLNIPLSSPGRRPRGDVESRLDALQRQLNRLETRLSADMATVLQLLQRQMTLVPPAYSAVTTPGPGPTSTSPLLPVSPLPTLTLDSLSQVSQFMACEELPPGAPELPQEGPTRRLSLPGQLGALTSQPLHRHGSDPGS
row,Compound,"hERG current change (%, negative = inhibition) at 10uM [%]"
1,Cc1cccc(C)c1NC(=O)C(NC(=O)c1ccccn1)c1ccc([N+](=O)[O-])cc1 (centres unmarked),7.6
2,CCn1c(SCC(=O)NCc2ccccc2)nnc1-c1ccccc1O,-7.65
3,C/C(=N\NC(=O)c1nnn(-c2nonc2N)c1CSc1ccc(Cl)cc1)c1ccco1,-0.36
4,O=C(Cn1cnc2c(nnn2Cc2ccccc2)c1=O)N1CCN(c2ccccc2)CC1,-42.5
5,O=S(=O)(c1cnc(Cl)c(Cl)c1)N1CCCc2ccccc21,6.26
6,O=C(CSc1nnc(-c2ccccc2F)o1)NC1CCCCC1,0.937
7,O=C(Cc1ccc(Cl)c(Cl)c1)Nc1ccc(SC(F)F)cc1,12.2
8,Cc1ccc(-n2c(C)cc(/C=C3/SC(=O)N(CC(=O)N4CCOCC4)C3=O)c2C)nc1,19.8
9,CC(C)Cn1c(N)c(C(=O)CCl)c(=O)n(C)c1=O,3.4
10,COc1ccccc1NC(=O)CN1C(=O)COc2ccc(S(=O)(=O)N3CCC(C)CC3)cc21,0.0721
11,Cc1ccc(C(C(=O)NC2CCCCC2)N(C(=O)c2csnn2)C2CC2)o1 (centres unmarked),-57.6
12,O=C1N(Cc2ccc(F)cc2)CCN1c1ccc(F)cc1,-49.9
13,Cc1cc(N2CCN(C(=O)Nc3ccccc3C#N)CC2)c2ccccc2n1,-72.9
14,O=c1cc[nH]c2ccc(Cl)cc12,14.2
15,Cc1ccccc1C(=O)N1CCN(c2ccc(NC(=S)NC(=O)c3cccs3)cc2)CC1,0.736
16,CC1(CCl)CN1S(=O)(=O)c1ccccc1 (centres unmarked),5.57
17,CC(=O)c1cccc(S(=O)(=O)NC(C)C2CC3CCC2C3)c1 (centres unmarked),-7.29
18,Cc1cccc(-n2c(SCC(=O)O)nc3sc4c(c3c2=O)CCC4)c1,19.7
19,NS(=O)(=O)c1ccc(CCNCC(=O)N2CCC(Cc3ccccc3)CC2)cc1.O=C(O)C(=O)O,-37.1

row,Compound,"hERG current change (%, negative = inhibition) at 10uM [%]"
1,O=C(COC(=O)/C=C/c1cccs1)Nc1nc(-c2ccccc2)cs1,12.1
2,O=C(CN1CCS(=O)(=O)CC1)N/N=C/c1cccc(C(F)(F)F)c1,2.75
3,CCCCNCCOCCOc1ccccc1-c1ccccc1.O=C(O)C(=O)O,-50.1
4,CC(C)(CO)Cc1cc(C(C)(C)C)c(O)c(C(C)(C)C)c1,-7.77
5,CCOC(=O)N1CCN(CC(O)COC2CC(C)CCC2C(C)C)CC1.Cl (centres unmarked),-33.1
6,CCOC(=O)Cn1c(C)c(Br)c(=O)c2cccc(C)c21,2.49
7,Cc1cc(-c2ccc(S(=O)(=O)N3CCc4ccccc4C3)s2)on1,15.1
8,O=C(CSc1nnc(-c2ccc(C(F)(F)F)cn2)s1)c1ccccc1,13.4
9,Cc1cc2[nH]c(=O)c(=O)[nH]c2cc1S(=O)(=O)N1CCN(c2cccc(Cl)c2)CC1,7.87
10,CNS(=O)(=O)c1cn(CC(=O)N(C)Cc2ccccc2)cc1S(=O)(=O)NC,-11.3
11,CCOc1ccccc1N(C(=O)Nc1cccc(Cl)c1)C1=NC(C)CS1 (centres unmarked),9.17
12,Cc1ccccc1C=Nc1ccccc1C(N)=O,1.68
13,CCc1ccc(C2CC(c3ccccc3)Nc3nc(N)nn32)cc1 (centres unmarked),3.94
14,Cc1ccccc1OCc1nnc(SCC(=O)Nc2ccc3nc(SCC(=O)NC(C)(C)C)sc3c2)n1C,14.3
15,CCCCc1cc(=O)oc2c3c(cc(OCC(=O)N4CCC[C@H]4C(=O)O)c12)OC(C)(C)CC3,13.3
16,CCOc1ccccc1C(=O)Nc1cccc(-c2ccc(N3CCOCC3)nn2)c1,-30.1
17,CCOC(=O)Cn1ncn(-c2ccc(OC(F)(F)F)cc2)c1=O,24.1
18,O=C(NCc1ccco1)C1CC(c2ccc(Cl)c(Cl)c2)=NO1 (centres unmarked),8.51
19,Br.C(CCCN1CCCCC1)CCN1CCCCC1,8.23

row,Compound,"hERG current change (%, negative = inhibition) at 10uM [%]"
1,Cc1ccc(C2CC(c3cccs3)=NN2C(=O)CSc2nc(=O)n3cc(C)ccc3n2)cc1 (centres unmarked),-66.6
2,CCCc1cc(=O)n2c([nH]c3ccccc32)c1C#N,8.13
3,Cc1oc2nc(SCC(=O)NCCCO)nc(N)c2c1C,2.63
4,CS(=O)(=O)N(CCc1ccccc1)CC(=O)Nc1ccc(Br)cc1F,13.5
5,COc1cccc(CNC(C)(C)CO)c1OCc1ccc(Cl)cc1.Cl,-56.6
6,N#Cc1cccc(NC(=O)CNc2cccc(S(=O)(=O)N3CCCC3)c2)c1,-26
7,O=C(COC(=O)CCC1CCCC1)Nc1cccc(S(=O)(=O)N2CCOCC2)c1,-31.8
8,CCOC(=O)NC1Cc2ccccc2C1Sc1ccccn1 (centres unmarked),7.65
9,CCCCN(Cc1ccco1)C(=O)c1cc2c(=O)[nH]c3ccc(C)cc3c2s1,16.6
10,CCOC(=O)C1CCN(S(=O)(=O)c2ccc3[nH]c(=O)c(=O)[nH]c3c2)CC1,26.6
11,Cc1cccn2c(=O)c3c(nc12)N1CCC(Cc2ccccc2)CC1C1(C3)C(=O)N(C)C(=O)N(C)C1=O (centres unmarked),-0.575
12,Cc1ccc(S(=O)(=O)N2CCCCC2)cc1NC(=O)Cn1cnnn1,4.33
13,CC(C)c1ccc(C(=O)NCCCN2CCOCC2)cc1,-5.2
14,CC(=O)NCCc1nc2ccccc2n1Cc1cc(C)ccc1C,-4.18
15,CCOc1ccc(OCCC(=O)N2CCN(S(=O)(=O)c3cccc(F)c3)CC2)cc1,-62.4
16,COc1ccc(CNC(=O)c2cc3c(=O)n4ccccc4nc3n(CC3CCCO3)c2=N)cc1 (centres unmarked),-72.5
17,Nc1c(-c2ccc(Cl)cc2)nnn1-c1ccccc1,-4.88
18,O=C(NC1CCCCC1)c1ccc(CS(=O)(=O)c2ccc(Cl)cc2)o1,-29.1
